This is one part of the list. Many values rest on one well or one pass, so single values are uncertain.
Tests used:
Assay in all cases: cell count relative to DMSO control; melanoma cells; higher = more viable cells
Settings in all cases: library dose: standard library concentration; 72 h
[1] = tested on: G361
[2] = tested on: IPC-298
[3] = tested on: IST-MEL1
[4] = tested on: LB2518-MEL
[5] = tested on: LOXIMVI
[6] = tested on: MEL-HO
[7] = tested on: MZ2-MEL
[8] = tested on: MeWo
[9] = tested on: RPMI7951
[10] = tested on: RVH-421
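Note: cells treated in 1,536-well plates, then fixed and DAPI-stained, with nuclei counted from automated high-throughput microscope images.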

Structure (SMILES)	cell count [1] [%]	cell count [2] [%]	cell count [3] [%]	cell count [4] [%]	cell count [5] [%]	cell count [6] [%]	cell count [7] [%]	cell count [8] [%]	cell count [9] [%]	cell count [10] [%]
C[C@]1(O)C[C@@H](c2nc(-c3ccc4ccc(-c5ccccc5)nc4c3)c3c(N)nccn32)C1 + C#Cc1cccc(Nc2ncnc3cc(OCCOC)c(OCCOC)cc23)c1 [erlotinib] (first compound 2 µM, partner dose 4 µM)	56.7	62.5	91.2	62.8	54.3	84.8	75.8	67.1	55.8	103
C[C@]1(O)C[C@@H](c2nc(-c3ccc4ccc(-c5ccccc5)nc4c3)c3c(N)nccn32)C1 + O=C1NC(=O)/C(=C/c2ccc(-c3ccc(F)cc3O)o2)S1 [AS252424] (first compound 2 µM, partner dose 5 µM)	74.1	76.4	88.6	82.3	106	77.2	94	78	104	105
C[C@]1(O)C[C@@H](c2nc(-c3ccc4ccc(-c5ccccc5)nc4c3)c3c(N)nccn32)C1 + CC(C)C[C@H](NC(=O)[C@H](Cc1ccccc1)NC(=O)c1cnccn1)B(O)O [Bortezomib] (first compound 2 µM, partner dose 0.005 µM)	1.5	9.4	10.1	3.85	29.6	34.5	2.13	11	4.12	14.4
CCN(CC)CCNC(=O)c1c(C)[nH]c(/C=C2\C(=O)Nc3ccc(F)cc32)c1C [sunitinib] + C=CCNC1=C2C[C@@H](C)C[C@H](OC)[C@H](O)[C@@H](C)/C=C(\C)[C@H](OC(N)=O)[C@@H](OC)/C=C\C=C(/C)C(=O)NC(=CC1=O)C2=O [Tanespimycin] (first compound 2 µM, partner dose 0.01 µM)	29.8	58.2	50.6	33.9	224	75.1	88.8	42.9	61.4	99.3
Cn1cnc2c(F)c(Nc3ccc(Br)cc3Cl)c(C(=O)NOCCO)cc21 [selumetinib] + CN1CCN(c2ccc3nc(-c4c(N)c5c(F)cccc5[nH]c4=O)[nH]c3c2)CC1 [Dovitinib] (first compound 0.075 µM, partner dose 0.5 µM)	33.8	31.5	45.8	31	82.3	50	21.8	30.9	75.4	71.3
C[C@]1(O)C[C@@H](c2nc(-c3ccc4ccc(-c5ccccc5)nc4c3)c3c(N)nccn32)C1 + Nc1ncn([C@H]2C[C@H](O)[C@@H](CO)O2)c(=O)n1 [decitabine] (first compound 2 µM, partner dose 0.5 µM)	94.5	67.9	89.7	68	69.6	92.7	76.7	58.6	59.8	105
Cn1cnc2c(F)c(Nc3ccc(Br)cc3Cl)c(C(=O)NOCCO)cc21 [selumetinib] + NCC(=O)Nc1ccc(-n2nc(C(F)(F)F)cc2-c2ccc3c(ccc4ccccc43)c2)cc1 [OSU03012] (first compound 0.075 µM, partner dose 5 µM)	86.2	59	70.9	42.9	84.5	88	85.3	76.1	115	81.9
Cn1cnc2c(F)c(Nc3ccc(Br)cc3Cl)c(C(=O)NOCCO)cc21 [selumetinib] + Cn1c(=O)n(-c2ccc(C(C)(C)C#N)cc2)c2c3cc(-c4cnc5ccccc5c4)ccc3ncc21 [NVP-BEZ235] (first compound 0.075 µM, partner dose 0.02 µM)	51.8	43.2	70.8	42.3	95.9	65.8	55	59.7	66.4	67.9
C[C@]1(O)C[C@@H](c2nc(-c3ccc4ccc(-c5ccccc5)nc4c3)c3c(N)nccn32)C1 + OCCn1cc(-c2cnc3nnn(Cc4ccc5ncccc5c4)c3n2)cn1 [PF04217903] (first compound 2 µM, partner dose 5 µM)	99.1	105	100	96.9	86.4	90.4	141	81.7	123	123
CCN(CC)CCNC(=O)c1c(C)[nH]c(/C=C2\C(=O)Nc3ccc(F)cc32)c1C [sunitinib] + Nc1cccc2c1CN(C1CCC(=O)NC1=O)C2=O [lenalidomide] (first compound 2 µM, partner dose 5 µM)	95.4	74.5	106	62.7	161	90.6	107	53.7	68.8	73.3
CCN(CC)CCNC(=O)c1c(C)[nH]c(/C=C2\C(=O)Nc3ccc(F)cc32)c1C [sunitinib] + COc1cc2ncnc(Nc3ccc(Oc4ccccc4)cc3)c2cc1OC [SrcI1] (first compound 2 µM, partner dose 10 µM)	7.46	60.4	71	73.5	60.6	73.5	85	57.4	13.5	84.6
C[C@]1(O)C[C@@H](c2nc(-c3ccc4ccc(-c5ccccc5)nc4c3)c3c(N)nccn32)C1 + Cc1cc([N+](=O)[O-])ccc1NS(=O)(=O)c1cc(Cl)ccc1Cl [FH535] (first compound 2 µM, partner dose 5 µM)	43.6	55.4	53.3	76.9	67.5	61.1	81.7	71.7	86.4	38.7
COc1cc([C@@H]2c3cc4c(cc3[C@@H](O[C@@H]3O[C@@H]5CO[C@@H](C)O[C@H]5[C@H](O)[C@H]3O)[C@H]3COC(=O)[C@H]23)OCO4)cc(OC)c1O [etoposide] + NC(=O)Nc1cc(-c2cccc(F)c2)sc1C(=O)N[C@H]1CCCNC1 [AZD7762] (first compound 0.1 µM, partner dose 0.1 µM)	90.5	86.1	105	64.2	79.5	85.7	101	69.6	31.7	–
CCN(CC)CCNC(=O)c1c(C)[nH]c(/C=C2\C(=O)Nc3ccc(F)cc32)c1C [sunitinib] + COc1cc2c(Oc3ccc4[nH]c(C)cc4c3F)ncnc2cc1OCCCN1CCCC1 [cediranib] (first compound 2 µM, partner dose 2 µM)	66.9	75	89.5	48	44.2	84.1	93.5	45.4	13.7	82.2
Cn1cnc2c(F)c(Nc3ccc(Br)cc3Cl)c(C(=O)NOCCO)cc21 [selumetinib] + O=C(O)c1ccc(-c2c[nH]c3ncc(-c4ccccc4)cc23)cc1C1CCCC1 [GSK650394] (first compound 0.075 µM, partner dose 0.8 µM)	51.2	69.8	91.9	44.9	60.6	75.9	81.3	75.4	89.5	84.9
COc1cc([C@@H]2c3cc4c(cc3[C@@H](O[C@@H]3O[C@@H]5CO[C@@H](C)O[C@H]5[C@H](O)[C@H]3O)[C@H]3COC(=O)[C@H]23)OCO4)cc(OC)c1O [etoposide] + C[C@]1(c2nc3c(C(N)=O)cccc3[nH]2)CCCN1 [Veliparib] (first compound 0.1 µM, partner dose 7 µM)	107	62.9	90.4	79.5	80	107	72.3	85.5	90.2	88.6
COc1cc([C@@H]2c3cc4c(cc3[C@@H](O[C@@H]3O[C@@H]5CO[C@@H](C)O[C@H]5[C@H](O)[C@H]3O)[C@H]3COC(=O)[C@H]23)OCO4)cc(OC)c1O [etoposide] + C=C(c1ccc(C(=O)O)cc1)c1cc2c(cc1C)C(C)(C)CCC2(C)C [Bexarotene] (first compound 0.1 µM, partner dose 10 µM)	80.9	60.6	96.9	84.7	125	89.9	72.6	80.2	68.6	97.6
COc1cc([C@@H]2c3cc4c(cc3[C@@H](O[C@@H]3O[C@@H]5CO[C@@H](C)O[C@H]5[C@H](O)[C@H]3O)[C@H]3COC(=O)[C@H]23)OCO4)cc(OC)c1O [etoposide] + Cc1cc(Nc2cc(N3CCN(C)CC3)nc(/C=C/c3ccccc3)n2)n[nH]1 [ENMD2076] (first compound 0.1 µM, partner dose 0.2 µM)	72.5	66.4	89.4	63.4	76.3	105	77.2	81.8	103	88.8
CCN(CC)CCNC(=O)c1c(C)[nH]c(/C=C2\C(=O)Nc3ccc(F)cc32)c1C [sunitinib] + NC(=O)Nc1cc(-c2cccc(F)c2)sc1C(=O)N[C@H]1CCCNC1 [AZD7762] (first compound 2 µM, partner dose 0.1 µM)	65.1	84.5	102	57	70.9	79.9	131	59.3	38.7	75.2
C[C@]1(O)C[C@@H](c2nc(-c3ccc4ccc(-c5ccccc5)nc4c3)c3c(N)nccn32)C1 + CO[C@@H]1[C@H](N(C)C(=O)c2ccccc2)C[C@H]2O[C@]1(C)n1c3ccccc3c3c4c(c5c6ccccc6n2c5c31)C(=O)NC4 [Midostaurin] (first compound 2 µM, partner dose 0.4 µM)	60.6	63.6	76.7	67.9	46.1	78.1	71	59.9	51.6	91.4

From the supplement of paper PMC4604168 (melanoma cell lines)
